PubChem BioAssay (NCATS)
This list was built around the results that the source calls inconclusive (neither active nor inactive); the mix of calls is not that of the screen. For some assays here: Potencies of inconclusive entries are doubtful fits and often do not repeat. For some assays here: A note “side channel” means that the fit belongs to a control or component signal, not to the main read-out. Calls of active or inactive are those of the source. Unless noted, calls follow the shape of the dose curve; as a rule, active = well fitted curve in either direction with a large enough effect (not every such curve was filed as active); inconclusive = small, poorly fitted or top-dose-only effect, or another doubt; inactive = flat fitted curve, though single readings scatter.

Assays:
[1] = NFAT Signaling Pathway (AID 444); conditions: Jurkat NFAT-bla M1, carbachol, beta-lactamase ratio, 5 h; at 17.2 µM (top of the series) unless noted;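 also: carbachol stimulus at about its EC50 of 1 µM final; % is scaled to controls: 0 for no effect and ±100 for the full control effect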
How it was run: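 Jurkat cells with NFAT-driven β-lactamase reporter and co-expressed M1 receptor, stimulated with carbachol (final 1 uM, ~EC50), compound titration, 5 h at 37 °C. CCF4 loaded 1 h at RT; 460/530 nm ratio gave %activity and AC50.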

[2] = qHTS Assay for Identification of Small Molecule Agonists for Hypoxia Response Element Signaling Pathway (AID 914; active = well fitted activation curve with a large enough effect in the signal ratio, with a control signal flat, not every such curve was filed as active; inconclusive = small, poorly fitted or top-dose-only effect, or effect the other way, or a change in a side signal; the % refers to the signal ratio; also: potency is read from the fitted curve at half-maximal effect; as to activation: top concentration of the series differs between compounds; % of control where 0% means no effect); conditions: ME-180 (cervical carcinoma) HRE-bla reporter, beta-lactamase ratio, CoCl2, 17 h; activation: stronger effect = higher value
How it was run: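 Compounds in a titration series were added to ME-180 reporter cells alongside an EC50 level of CoCl2. After 17 hours, beta-lactamase activity was read as the 460nm/530nm emission ratio of CCF4, giving AC50 values.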
Tags tell the direction and shape of the fitted curve or compound fluorescence and quenching.

Compound | activity change, negative = inhibition [1] | Potency [2] | activation [2]
COc1ccc(N2CCN(c3oc(COc4ccc(Cl)cc4)nc3C#N)CC2)cc1 | inconclusive: -29% [inhibitor] | inconclusive: 10 µM [cytotoxic, side channel, partial curve] | 
C=CCO[C@@H](Cn1ccnc1)c1ccc(Cl)cc1Cl | inconclusive: -58.7% [inhibitor] |  | inconclusive: -29.6%
Cc1ccccc1OCC(O)Cn1c(N2CCN(c3ccccc3)CC2)nc2c1c(=O)[nH]c(=O)n2C (centres undefined) | inactive: -4.3% |  | inconclusive: 24.2%
CC(=O)Nc1cc2ccccc2oc1=O | inactive: -6.5% |  | inconclusive: -26.7%
CN(C)CCCc1c2ccccc2nc2ccc(Cl)cc12 | inconclusive: -71.6% [inhibitor] [at 7.69 µM] |  | inconclusive: -2.3%
Cc1c(C)c2cc(Cl)c(O)c(CN3CCCCC3)c2oc1=O | inconclusive: 42.8% [activator] | inconclusive: 12.6 µM [activator, single point] | 
COc1ccccc1-c1nn2c(-c3ccco3)nnc2s1 | inconclusive: -63.6% [inhibitor] | inconclusive: 7.94 µM [inhibitor, partial curve] | 
CCn1cc(C(=O)NCCCN(C)C)c(=O)c2cc(F)c(N3CCN(C)CC3)cc21 | inconclusive: -60% [inhibitor] |  | inconclusive: 14%
O=C(c1cnccn1)N1CCC2(CC1)CN(Cc1ccccc1)C2 | inconclusive: -35.3% [inhibitor] [at 7.69 µM] |  | inactive: 6.71%
CCCN(CCC)C(=O)CC(c1ccc(F)cc1)c1ccco1 (centres undefined) | inconclusive: -30.7% [inhibitor] |  | inactive: 13.9%
COc1ccc(-c2oc3ncn4nc(COc5ccccc5)nc4c3c2-c2ccc(OC)cc2)cc1 | inconclusive: -28.6% [inhibitor] | inconclusive: 5.01 µM [cytotoxic, side channel, partial curve] | 
COc1cccc(CNc2ncc(Br)cc2Br)c1O | inconclusive: -19.4% [inhibitor] |  | inconclusive: -2.64%
Oc1c(C=Nc2cccnc2)sc2ccccc12 | inconclusive: -32.8% [inhibitor] | inconclusive: 12.6 µM [inhibitor, partial curve, poor fit] | 
CC1(C)Cc2c(C#N)c(SCCC#N)nc(N3CCOCC3)c2CS1 | inactive: 3.6% | inconclusive: 5.01 µM [inhibitor, partial curve] | 
CCCCNC(=O)N(C)c1nncnc1C(=O)NC | inconclusive: -72.1% [inhibitor] |  | inconclusive: -10.9%
CCCOc1ccc(/C(O)=C2/C(=O)C(=O)N(CCN3CCOCC3)C2c2ccccc2)cc1 (centres undefined) | inactive: 4.9% |  | inconclusive: -35.3%
COc1ccc(-c2cc(-c3ccccc3)n3ncnc3n2)cc1 | inactive: -9.06% |  | inconclusive: 24.1%
O=c1/c(=C\c2cccn2-c2ccccc2)sc2nc3ccccc3n12 | inconclusive: -51.6% [inhibitor] | active: 12.6 µM | 
O=c1[nH]c(=O)n(Cc2ccco2)c2c1C(C(F)(F)F)(C(F)(F)F)N=C(c1ccco1)N2 | inconclusive: -45.9% [inhibitor] |  | inconclusive: 32%
CCCc1cc(=O)oc2c(CN3CCCC3)c(O)ccc12 | inactive: 8.87% | inconclusive: 10 µM [activator, partial curve] | 
N#Cc1nc(COc2ccc(Cl)cc2)oc1N1CCN(Cc2ccccc2)CC1 | inconclusive: -71.5% [inhibitor] |  | inconclusive: 3.34%
O=C(c1cccc(F)c1)N1CCC2(CCCN(c3ccccn3)C2)CC1 | inconclusive: -58.7% [inhibitor] [at 7.69 µM] |  | inactive: -10.7%
N#CCCSc1nc(N2CCOCC2)c2c(c1C#N)CCCC2 | inactive: 13.2% |  | inconclusive: -27.7%
Cc1ccc(S(=O)(=O)OCC(=O)O)cc1 | inactive: 4.54% [at 7.69 µM] |  | inconclusive: 23.1%
Cc1cc(Cl)ccc1OCC(=O)OC(C)C(=O)N(C)C (centres undefined) | inactive: 17.7% |  | inactive: -0.0413%
O=S(=O)(c1cccc(-c2csc(-c3ccccc3)n2)c1)N1CCOCC1 | inconclusive: -34.8% [inhibitor] | inconclusive: 3.98 µM [inhibitor, full curve] | 

Compound | activity change, negative = inhibition [1] | Potency [2] | activation [2]
CN1CCC[C@H](C(=O)OCC(=O)[C@]2(O)CC[C@@H]3[C@H]4CCC5=CC(=O)CC[C@@]5(C)[C@H]4[C@@H](O)C[C@]32C)C1 | inconclusive: -61.4% [inhibitor] [at 7.69 µM] |  | inconclusive: -30.9%
C[C@@H]1[C@H]2CC[C@@H]3[C@@H]4CC=C5C[C@@H](N(C)C)CC[C@]5(C)[C@@H]4CC[C@@]32CN1C | inconclusive: -35.5% [inhibitor] |  | inactive: 23.8%
COC(=O)c1sc2nc(N3CCCCC3)c3c(c2c1N)CC(C)(C)N(C)C3 | inconclusive: -57.5% [inhibitor] |  | inconclusive: -53.8%
Cc1ccc(C2/C(=C(/O)c3ccc(OC(C)C)cc3)C(=O)C(=O)N2CCN2CCOCC2)cc1 (centres undefined) | inactive: 10.1% | inconclusive: 10 µM [inhibitor, partial curve] | 
CC(C)CSc1nc(N2CCOCC2)c2c(c1C#N)CC(C)(C)SC2 | inconclusive: -58.9% [inhibitor] |  | inconclusive: -32.4%
COc1ccc(N/C=C(\C#N)c2nc3ccccc3n2C)c(OC)c1 | inconclusive: -87% [inhibitor] | inconclusive: 12.6 µM [inhibitor, partial curve, poor fit] | 
CC(=O)OCC(=O)[C@@]1(O)CC[C@H]2[C@@H]3CCC4=CC(=O)CC[C@]4(C)[C@H]3[C@@H](O)C[C@@]21C | inconclusive: -31.3% [inhibitor] | inconclusive: 0.126 µM [inhibitor, full curve] | 
C[C@@]12C[C@H](O)[C@@H]3[C@H](CCC4=CC(=O)CC[C@]43C)[C@H]1CC[C@@H]2c1csc(-c2ccccc2)n1 | inconclusive: -82.3% [inhibitor] [at 7.69 µM] | inconclusive: 5.01 µM [inhibitor, single point] | 
CCOC(=O)C1=C(C)NC(SCC(=O)Nc2nc(C)cs2)=C(C#N)C1c1cccs1 (centres undefined) | inconclusive: 37.4% [activator] | active: 10 µM | 
CCc1cc(=O)oc2c(CN3CCN(C)CC3)c(O)c(Cl)cc12 | inconclusive: 36.6% [activator] | inconclusive: 6.31 µM [activator, partial curve] | 
C[N+](C)(C)CCN(Cc1cccs1)c1ccccn1 | inconclusive: -66% [inhibitor] [at 7.69 µM] |  | inactive: 3.56%
N#C/C(C(=O)NCc1ccco1)=C1/SC(Cc2ccc(Cl)cc2)C(=O)N1c1ccccc1 (centres undefined) | inconclusive: -30% [inhibitor] | inconclusive: 12.6 µM [inhibitor, single point] | 
N#CC(C(=O)NC1CCCCC1)c1nc2ccccc2nc1N1CCN(c2ccccc2F)CC1 (centres undefined) | inconclusive: -37.7% [inhibitor] |  | inconclusive: 39.2%
N=c1c(C(=O)NCc2ccccc2)cc2c(=O)n3ccccc3nc2n1Cc1ccco1 | inconclusive: -41.6% [inhibitor] | active: 6.31 µM | 
O=C(Oc1ccccc1)N1CCC2(CC1)CCN(c1ccncc1)CC2 | inconclusive: -77.3% [inhibitor] [at 7.69 µM] | inconclusive: 1 µM [activator, full curve] | 
Nc1ncnc2c1ncn2[C@H]1O[C@@H](C(=O)OCCO)[C@@H](O)[C@H]1O | inactive: 21.4% [at 7.69 µM] |  | inconclusive: -9.81%
N#CC1(Nc2ccc(-c3ccc(NC4(C#N)CCCC4)cc3)cc2)CCCC1 | inactive: 14.8% [at 7.69 µM] |  | inconclusive: 2.48%
Cn1c(=O)n(Cc2ccccc2)c(=O)c2c1nc(NCC1CCCO1)n2Cc1ccccc1 (centres undefined) | inactive: -16.1% | inconclusive: 2.51 µM [inhibitor, full curve] | 
Cc1noc(C)c1C(=O)N1CCC2(CCN(Cc3ccccc3)CC2)CC1 | inconclusive: -51.8% [inhibitor] [at 7.69 µM] |  | inactive: -10.3%
N#Cc1ccc(CN2CC[C@@]3(CCCN(C(=O)c4cc(C(F)(F)F)cc(C(F)(F)F)c4)C3)C2)cc1 | inconclusive: -53.3% [inhibitor] [at 7.69 µM] |  | inactive: 13.6%
Brc1cccc(-c2cnc3n2CCCCC3)c1 | active: -87.3% |  | inconclusive: -39.3%
COc1ccc(/C=C/C2=NC(=C\N(C)C)/C(=O)O2)cc1 | inconclusive: 18.5% [inhibitor] | inconclusive: 3.16 µM [inhibitor, single point] | 
COC(=O)c1n[nH]c2ccccc12 | inactive: 15.6% | inconclusive: 10 µM [inhibitor, partial curve] | 
CNc1oc(-c2ccccc2Cl)nc1C#N | inconclusive: 13.1% [activator] |  | inactive: 10.7%
CC1(C)[C@@H](CC(=O)O)CCC[C@@H]1CC(=O)O | inactive: 5.58% [at 7.69 µM] |  | inconclusive: 1.18%
CCC1(C)Cc2c(sc3c2c(=O)n(C)c2nnc(SCc4ccc5c(c4)OCO5)n32)CO1 (centres undefined) | inconclusive: -31.9% [inhibitor] |  | inactive: -18.9%
